The text below walks through data of the supplement of paper PMC8821664.

SMILES strings stand for the structures. Counter-ions that a name gives are not always drawn. The list shows a part of the results. Repeats are few or missing, and single values can be far off. Positions of bridges follow the written chain, without caps; N, C: chain ends. Non-standard residues stand in square brackets, D forms with d. Residues, ends and D or L forms follow the SMILES beside them. *: point of attachment. Ileψ(thiazoline)Cys = CC[C@H](C)[C@H](N)C1=N[C@H](C(=O)*)CS1; dOrn = NCCC[C@@H](N)C(=O)O
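Note: monoclonal Beas-2B line stably carrying CMV promoter-driven AQP5-HiBiT, 5,000 cells per well in 384-well plates, lytic HiBiT plus LgBiT NanoLuc luminescence, FDA-approved drug library screen.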

The test has as its system Beas-2B AQP5-HiBiT reporter cells. In words: AQP5-HiBiT luminescence relative to vehicle (ratio to vehicle); higher = higher AQP5-HiBiT protein abundance. The note with it: 10 µM; 18 h.
For `CC(=O)OCC(=O)[C@H]1CC[C@H]2[C@@H]3CCC4=CC(=O)CC[C@]4(C)[C@H]3CC[C@]12C` [Deoxycorticosterone acetate], the AQP5-HiBiT luminescence was determined as 1.28.
On to `Cc1oncc1C(=O)Nc1ccc(C(F)(F)F)cc1` [Leflunomide], for which the AQP5-HiBiT luminescence worked out at 0.992.
Consider `CCN[C@@H]1C[C@H](N)[C@@H](O[C@H]2OC(CN)=CC[C@H]2N)[C@H](O)[C@H]1O[C@H]1OC[C@](C)(O)[C@H](NC)[C@H]1O` [Netilmicin sulfate], for which the AQP5-HiBiT luminescence turned out to be 1.29.
For `O=C(O)C1=C(CSc2nnnn2CS(=O)(=O)O)CS[C@@H]2[C@H](NC(=O)[C@H](O)c3ccccc3)C(=O)N12` [Cefonicid sodium] the value was 1.16; for `CC(=O)Oc1ccccc1C(=O)Nc1ncc([N+](=O)[O-])s1` [Nitazoxanide], 0.386.
`CC[C@H](C)[C@H](N)C1=N[C@H](C(=O)N[C@@H](CC(C)C)C(=O)N[C@H](CCC(=O)O)C(=O)N[C@H](C(=O)N[C@H]2CCCCNC(=O)[C@H](CC(N)=O)NC(=O)[C@@H](CC(=O)O)NC(=O)[C@H](Cc3cnc[nH]3)NC(=O)[C@@H](Cc3ccccc3)NC(=O)[C@H]([C@@H](C)CC)NC(=O)[C@@H](CCCN)NC2=O)[C@@H](C)CC)CS1` [Bacitracin] ({Ileψ(thiazoline)Cys}-L[dE]IK[dOrn]I[dF]H[dD]N; lactam 4-C): the AQP5-HiBiT luminescence came to 1.13.
For `CC(C)n1c(/C=C/C(O)CC(O)CC(=O)O)c(-c2ccc(F)cc2)c2ccccc21` (stereo not drawn) [Fluvastatin sodium salt] the value was 0.933; for `CO/N=C(\C(=O)N[C@@H]1C(=O)N2C(C(=O)O)=C(COC(N)=O)CS[C@H]12)c1ccco1` [Cefuroxime sodium], 0.781.
